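The compound was tested at five concentrations on cells cultured in 96-well plates, with a 48-hour exposure period. GI50: concentration for 50% inhibition of growth. The concentration for full growth arrest is given as TGI.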 A value given as a limit tells only on which side of the number the result lay.

The subject of the test is NCI-H322M lung. The test is described as follows: NCI tumour cell line growth inhibition, 48 h.
Take `COc1ccc(C(=O)c2cc(C)c(OC)c(C)c2)cc1OC(=O)CCl`: the GI50 was 0.0102 µM and the TGI is more than 100 µM.
Consider `CN(C)CCNc1ccc(CO)c2oc3ccc(O)cc3c(=O)c12`, for which the TGI is 29.8 µM.
Same read-out and setting: with `Nc1nc(-c2ccccc2)cc(-c2ccc(OCc3ccccc3)cc2O)n1` the figure was more than 100 µM; with `c1ccc(CNc2nncc3[nH]cnc23)cc1`, more than 100 µM.
Still for that read-out and setting: the result for `CCC(=O)Oc1ccc2c(c1)c(=O)c1c(NCCCN(C)C)ccc3nnn2c31` reads 15.6 µM; that for `CC(C)=C[C@H]1CCC2(OCCO2)[C@]1(C)COCc1ccccc1`, more than 100 µM.
The same measure, in the same setting: with `O=C(O)CNS(=O)(=O)c1ccc(NC(=O)c2ccc([N+](=O)[O-])cc2)cc1` the figure was more than 100 µM.
Regarding `C=CCCCCC/C=C\[C@@H](O)C#CC#C/C=C/CO`, the GI50 is more than 100 µM and the TGI is more than 100 µM.
Take `O=C(Nc1n[nH]c2cc(-c3ccccc3)ccc12)C1CC1`: the GI50 is more than 25 µM and the TGI was more than 25 µM.
With `O=C(c1cccs1)N1CCc2ccccc2C1`, the TGI was more than 100 µM.
In the case of `CCOC(=O)CNC(=O)N(CC)C12CC3CC(CC(C3)C1)C2`, the TGI was 451 µM.
The same measure, in the same setting: the result for `CC1=[N+]([O-])c2ccccc2C(=O)C1=O` reads more than 100 µM.
Same read-out and setting: with `CCOC(=O)c1c(N2CCOCC2)[nH]c(=O)c(C(c2c(Cl)cccc2Cl)c2c(O)c(C(=O)OCC)c(N3CCOCC3)[nH]c2=O)c1O` the figure was 32.9 µM; with `CN(C)CCC1(C2=CCCC2)CC/C(=C\c2ccc(Cl)cc2)C1=O` (stereo unspecified), 24.9 µM; with `c1cnn(CN(Cn2cccn2)Cn2cccn2)c1`, more than 100 µM.
Same read-out and setting: with `Clc1ccc(C[P+](c2ccccc2)(c2ccccc2)c2ccccc2)c(Cl)c1` the figure was 27.5 µM; with `O=c1cc(N2CCCC2)[nH]c(=O)n1-c1cccc(Cl)c1`, more than 100 µM.
Turning to `COC(=O)Nc1nc2ccc(C3(c4ccc(F)cc4)OCCO3)cc2[nH]1`, the GI50 is 0.638 µM and the TGI was more than 100 µM.
`CCOC(=O)C1C(=O)CC1(C)C` (stereo unspecified) gave a TGI of more than 10 µM.
Compound `COC(=O)[C@@]12C(=O)C=CC(=O)C1C1C(=CC2C)OC2OC3(CCCCC3)OC21` (stereo partly specified) yielded a TGI of 32.6 µM.
Still for that read-out and setting: the result for `CCC(C)NC1=NCC(C)S1` (stereo unspecified) reads more than 100 µM; that for `CCN(CC)CCSc1c2cc(OC)ccc2nc2ccc(OC)cc12`, 28 µM; that for `Cc1cc(NC(=S)SCc2ccc(F)cc2)c([N+](=O)[O-])cc1C`, more than 100 µM.
Still for that read-out and setting: the result for `CNC(=S)/N=C(\N)N(C)C` reads more than 100 µM; that for `CC(=O)O[C@H]1C(=O)[C@@]2(C)[C@H]([C@H](OC(=O)c3ccoc3)[C@]3(O)C[C@H](OC(=O)[C@H](O)[C@@H](NC(=O)c4ccccc4)c4ccccc4)C(C)=C1C3(C)C)[C@]1(OC(C)=O)CO[C@@H]1C[C@@H]2O`, more than 12.5 µM; that for `COc1cc2cc3c4cc(OC)c(OC)cc4cc[n+]3c(C)c2cc1OC` (tested in a mixture with another compound), more than 65.5 µM.
Still for that read-out and setting: with `Cc1ccc2c3c1O[C@H]1c4[nH]c5ccccc5c4C[C@@]4(O)[C@@H](C2)N(CC2CC2)CC[C@]314` the figure was 32.2 µM.
On to `O=Cc1ccccc1COC(=O)c1cc(C(=O)OCc2ccccc2C=O)c(C(=O)OCc2ccccc2C=O)cc1C(=O)OCc1ccccc1C=O`, for which the TGI is more than 100 µM.
The compound `CC1CC2=C(S(=O)(=O)c3ccccc3)CC(S(=O)(=O)c3ccccc3)(S(=O)(=O)c3ccccc3)CC21` (stereo unspecified) returned a TGI of more than 100 µM.
Same read-out and setting: the result for `COC1=C(OC)C(=O)C(Cc2c(C)nc3sccn23)=C(C)C1=O` reads 36.2 µM; that for `CC(=O)ONC(C(=O)C(C)(C)C)C(=O)C(C)(C)C`, more than 100 µM; that for `CN=C(SC)N(C)c1nc(=[N+](C)C)ss1`, more than 100 µM.
On the same count and under the same terms, the result for `CC1(C)OC(=O)N(c2ccccc2)C12C=Cc1cc([N+](=O)[O-])ccc1O2` (stereo unspecified) reads more than 100 µM; that for `CC(=O)O[C@H]1CCC2[C@@H]3CC[C@]4(C)CC(=O)C=C[C@]4(C)C3CC[C@@]21C` (stereo partly specified), more than 100 µM.
As for `CCc1nc2cc(F)c(/C=C/C(=O)NO)cc2c(=O)n1CCc1ccccc1`, the GI50 was 0.41 µM and the TGI amounted to 19.5 µM.
`Nc1nc(-[n+]2ccc(-c3ccncc3)cc2)nc(Cl)c1Cl` gave a TGI of more than 100 µM.
Regarding `CC(=O)Nc1ccc(/C=C/c2ccc(NC(=O)Nc3ccc(/C=C/c4ccc(NC(C)=O)cc4S(=O)(=O)O)c(S(=O)(=O)O)c3)cc2S(=O)(=O)O)c(S(=O)(=O)O)c1`, the TGI is more than 100 µM.
With `CC1(C)C[C@@H]2C1CCC1(C)CC2(O)CC[C@H]1O` (stereo partly specified), the TGI was more than 100 µM.
Same read-out and setting: the result for `O=C(CC(=O)n1nc(-c2ccccc2)c(N=Nc2ccc(Cl)cc2)c1-c1ccccc1)Nc1ccc(Cl)cc1` reads more than 100 µM.
On to `Cc1cc(C(=O)Nc2ccc3cc(CN4CCOCC4)ccc3n2)c(C)n1-c1ccccc1`, for which the GI50 was 19.6 µM and the TGI was more than 100 µM.
In turn, `C/C(=N/NC(N)=S)c1ccc[nH]1` showed a TGI of more than 100 µM.
The same measure, in the same setting: the result for `CCOC(=O)N[C@@H]1C(CC(=O)OC)O[C@H]2OC(C)(C)O[C@H]21` (stereo partly specified) reads more than 100 µM.
On to `NS(=O)(=O)c1ccc(-c2ccc3c(NC(=O)C4CC4)n[nH]c3c2)cc1`, for which the GI50 is more than 25 µM and the TGI is more than 25 µM.
`c1ccc(C2N3CCCCC3[C@@H]3c4[nH]c5ccccc5c4CCN23)nc1` (stereo partly specified) returned a TGI of more than 100 µM.
Consider `CC1(C)C(=O)/C(=C\c2cccnc2)C[C@]2(C)[C@H]3CC[C@@H]4[C@H]5[C@H](C(=O)/C=C/c6cccnc6)CC[C@]5(C(=O)O)CC[C@@]4(C)[C@]3(C)CC[C@@H]12`, for which the GI50 was 3.52 µM and the TGI was determined as 13.5 µM.
The matching figures for `O=C1/C(=C(/c2ccccc2)N2CCOCC2)Cc2ccccc21`: 6.57 µM and 19.6 µM.
The matching figures for `Cc1ccc(N=C/C=C(\Nc2ccc(C)cc2)c2ccc(Cl)cc2)cc1`: 10.5 µM and 32.2 µM.
In the case of `CCCc1c(O)nc(Nc2nc3ccccc3[nH]2)[nH]c1=O`, the TGI is more than 100 µM.
Same read-out and setting: with `CC(C)OC(=O)/C=C/C(=O)O/C=C/[N+](=O)[O-]` the figure was more than 100 µM; with `O=C1c2ccccc2C(=O)N1CCCCNOCCCN1C(=O)c2ccccc2C1=O`, more than 100 µM.
On to `COc1cc2c(cc1OCCCCC(=O)Nc1cc3c4ccccc4ccc3c3ccccc13)N=C[C@@H]1CCCN1C2=O`, for which the GI50 is 4.9 µM and the TGI is 24.3 µM.
The compound `O=C(c1cccc2ccccc12)N1CCC(C2CCN(C(=O)c3cccc4ccccc34)CC2)CC1` gave a TGI of more than 100 µM.
On the same count and under the same terms, with `CC(=O)C1Cn2c(nc3ccccc32)C[Se]1` (stereo unspecified) the figure was 13.5 µM.
On the same count and under the same terms, with `COC(=O)C(Cc1nc2ccccc2[nH]c1=O)C(NO)C(=O)Nc1c(Cl)cc([N+](=O)[O-])cc1Cl` (stereo unspecified) the figure was more than 100 µM; with `CCOc1ncn(-c2ccc(NC(=S)NC3OC(CO)C(O)C(O)C3O)cc2)n1` (stereo unspecified), more than 100 µM.
On the same count and under the same terms, with `Cn1c([C@H](C#N)c2ncccc2[N+](=O)[O-])nc2ccccc21` the figure was more than 100 µM; with `O=C1C2C3C=C4c5ccccc5N(c5ccccc5)C4(C2C(=O)N1c1ccc([N+](=O)[O-])cc1)[C@H]1C(=O)N(c2ccc([N+](=O)[O-])cc2)C(=O)[C@@H]31` (stereo partly specified), more than 100 µM.
`O=C(NC(Cc1ccccc1)(Cc1ccc(O)cn1)C(=O)O)c1ccccc1` (stereo unspecified) showed a TGI of more than 100 µM.
Still for that read-out and setting: the result for `Cc1cc(NS(=O)(=O)c2ccc(Nc3c4ccccc4nc4c(C(=O)N5CCN(CCO)CC5)cccc34)cc2)no1` reads more than 100 µM.
`COc1ccc2c3c([nH]c2c1[N+](=O)[O-])C(C)N(C)CC3` (stereo unspecified) returned a TGI of more than 100 µM.

The record behind these values is PubChem BioAssay (NCI).
